# Source: PubChem BioAssay AID504832 (National Center for Advancing Translational Sciences (NCATS), 2011)
# In all, about 310,000 compounds went through this assay and about 18,000 (5.8%) were called active. Inconclusive results, whose numbers are uncertain, are shown with a selection of clear calls. Calls follow the shape of the dose curve; as a rule, active = well fitted inhibition curve with a large enough effect; inconclusive = small, poorly fitted or top-dose-only effect, or another doubt; inactive = no such curve, though single readings can be large or run the other way. No potency is given beside an inconclusive call; the fits are too rough.
# Experiment: Primary qHTS for delayed death inhibitors of the malarial parasite plastid, 48 hour incubation
# Conditions: P. falciparum luciferase growth in erythrocytes; series mostly up to 28.7 µM
# Outline: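 Here the parasites carry a stable luciferase gene and grow inside erythrocytes in Albumax-based RPMI medium with compound for one erythrocytic cycle. Activity is scored as loss of luminescent signal.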
# Potency is read from the fitted curve at half-maximal effect; tags tell the direction and shape of the fitted curve.
row,Structure (SMILES),Potency
1,COC(=O)C1=C(N)Oc2cc(C)[nH]c(=O)c2C1c1cc(OC)c(OC)c(OC)c1 (centres undefined),active: 10.4 µM
2,CCC(C)C(=O)Nc1nnc(SCC(=O)NC2CCCC2)s1 (centres undefined),"inconclusive [inhibitor, single point]"
3,O=C(NC(=S)Nc1ccc(CN2CCCCC2)cc1)c1cccc(OCc2ccccc2)c1,"inconclusive [inhibitor, partial curve]"
4,N#CC1=C(N)S[C@H](C(=O)C23CC4CC(CC(C4)C2)C3)[C@H]1c1ccncc1,active: 10.4 µM
5,Cc1cccc(C(=O)O/N=C(\N)Cc2ccc([N+](=O)[O-])cc2)c1,"inconclusive [inhibitor, single point]"
6,O=C1CC(SCc2nc3ccccc3[nH]2)C(=O)N1c1ccc(F)cc1 (centres undefined),inactive
7,CC(C)(C)n1nnnc1C(c1cc2cc3c(cc2[nH]c1=O)OCO3)N1CCN(c2ccccc2)CC1 (centres undefined),active: 1.65 µM
8,Cc1ccc(NC(=O)c2c(F)cccc2Cl)cc1S(=O)(=O)N1CCOCC1,"inconclusive [inhibitor, partial curve]"
9,CCn1nc(C)c(NC(=O)CCCSc2nc(-c3ccco3)cc(C(F)(F)F)n2)c1C,"inconclusive [inhibitor, single point]"
10,COc1ccc(N2CCN(C(CNC(=O)c3cccs3)c3ccco3)CC2)cc1 (centres undefined),"inconclusive [inhibitor, partial curve]"
11,COC(=O)c1nnn(-c2ccsc2C(=O)OC)c1C(=O)OC,inactive
12,CC(C)(C)NC(=O)NC(=O)CN1CCN(c2ccccc2O)CC1,"inconclusive [inhibitor, full curve, poor fit]"
13,O=C(SCC(O)C(O)CS)c1cccs1 (centres undefined),"inconclusive [inhibitor, single point]"
14,COCCn1c(SC(C(=O)Nc2cc(C)ccc2OC)c2ccccc2)nnc1-c1ccc(Cl)cc1 (centres undefined),active: 13.1 µM
15,CCCN(C(=O)Cc1csc(-c2ccccc2)n1)C1CCS(=O)(=O)C1 (centres undefined),inactive
16,O=C(NNC(=O)c1cc(Br)ccc1O)c1csc(N2CCOCC2)n1,"inconclusive [inhibitor, single point]"
17,O=C1[C@@H]2C(Cc3ccc(O)cc3)NC3(C(=O)Nc4ccc(F)cc43)[C@@H]2C(=O)N1c1ccccc1 (some centres undefined),"inconclusive [inhibitor, single point]"
18,CC(C)CC(=O)Nc1ccc(N2CCN(C(=O)c3cccs3)CC2)cc1,"inconclusive [inhibitor, partial curve]"
19,Cc1ccc(-c2cc(C(F)F)n3ncc(C(=O)Nc4c(C)nn(Cc5ccccc5Cl)c4C)c3n2)cc1,"inconclusive [inhibitor, full curve, poor fit]"
